# Results published in the supplement of paper PMC8728848.
# This is one part of the list.
# How the values were obtained:
# Assay in all cases: glycan array binding signal (z-score within array); higher = stronger binding
# Conditions in all cases: glycan notation: IUPAC condensed, linker removed
# [1] = target: Fuc(a1-3)[Gal3S(b1-4)]GlcNAc
# How it was run: (§1)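 Negative Z-scores can be read as non-binding. The Z-score is calculated within each array and then averaged across arrays of one protein sequence at different concentrations or buffers and across linkers. Arrays, 3228 in all, were curated from the Consortium for Functional Glycomics database and kept only where the protein sequence was available.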
# [2] = target: Fuc(a1-3)[Gal3S(b1-4)]GlcNAc6S
# How it was run: as §1
# [3] = target: Fuc(a1-3)[GalNAc(b1-4)]Gal(b1-4)GlcNAc
# How it was run: as §1
# [4] = target: Fuc(a1-3)[GalNAc(b1-4)]GlcNAc
# How it was run: as §1
# [5] = target: Fuc(a1-3)[GalNAc(b1-4)]GlcNAc6S
# How it was run: as §1
# Fuc(a1-4)GlcNAc = target: Fuc(a1-4)GlcNAc
# How it was run: as §1
# Fuc(b1-3)GlcNAc = target: Fuc(b1-3)GlcNAc
# How it was run: as §1
# Gal(a1-2)Gal = target: Gal(a1-2)Gal
# How it was run: as §1
# Gal(a1-3)Gal = target: Gal(a1-3)Gal
# How it was run: as §1
# Gal(a1-3)Gal(b1-3)Glc = target: Gal(a1-3)Gal(b1-3)Glc
# How it was run: as §1
# Gal(a1-3)Gal(b1-3)GlcNAc = target: Gal(a1-3)Gal(b1-3)GlcNAc
# How it was run: as §1
# [6] = target: Gal(a1-3)Gal(b1-3)GlcNAc(b1-2)Man
# How it was run: as §1
# [7] = target: Gal(a1-3)Gal(b1-3)GlcNAc(b1-2)Man(a1-3)[Gal(a1-3)Gal(b1-3)GlcNAc(b1-2)Man(a1-6)]Man(b1-4)GlcNAc(b1-4)GlcNAc
# How it was run: as §1
# [8] = target: Gal(a1-3)Gal(b1-3)GlcNAc(b1-3)GalNAc
# How it was run: as §1
# [9] = target: Gal(a1-3)Gal(b1-3)GlcNAc(b1-6)GalNAc
# How it was run: as §1
# [10] = target: Gal(a1-3)Gal(b1-3)[Fuc(a1-4)]GlcNAc(b1-2)Man(a1-3)[Gal(a1-3)Gal(b1-3)[Fuc(a1-4)]GlcNAc(b1-2)Man(a1-6)]Man(b1-4)GlcNAc(b1-4)GlcNAc
# How it was run: as §1
# Gal(a1-3)Gal(b1-4)Glc = target: Gal(a1-3)Gal(b1-4)Glc
# How it was run: as §1
# Gal(a1-3)Gal(b1-4)GlcNAc = target: Gal(a1-3)Gal(b1-4)GlcNAc
# How it was run: as §1
# [11] = target: Gal(a1-3)Gal(b1-4)GlcNAc(b1-2)Man
# How it was run: as §1
# [12] = target: Gal(a1-3)Gal(b1-4)GlcNAc(b1-2)Man(a1-3)[Gal(a1-3)Gal(b1-4)GlcNAc(b1-2)Man(a1-6)]Man(b1-4)GlcNAc(b1-4)GlcNAc
# How it was run: as §1
# [13] = target: Gal(a1-3)Gal(b1-4)GlcNAc(b1-3)GalNAc
# How it was run: as §1
# [14] = target: Gal(a1-3)Gal(b1-4)GlcNAc(b1-6)GalNAc
# How it was run: as §1
# [15] = target: Gal(a1-3)Gal(b1-4)[Fuc(a1-3)]GalNAc
# How it was run: as §1
# [16] = target: Gal(a1-3)Gal(b1-4)[Fuc(a1-3)]GlcNAc
# How it was run: as §1
# [17] = target: Gal(a1-3)Gal(b1-4)[Fuc(a1-3)]GlcNAc(b1-2)Man(a1-3)[Gal(a1-3)Gal(b1-4)[Fuc(a1-3)]GlcNAc(b1-2)Man(a1-6)]Man(b1-4)GlcNAc(b1-4)GlcNAc
# How it was run: as §1
# Gal(a1-3)GalNAc = target: Gal(a1-3)GalNAc
# How it was run: as §1
# Gal(a1-3)GlcNAc = target: Gal(a1-3)GlcNAc
# How it was run: as §1
# [18] = target: Gal(a1-3)[Gal(a1-4)]Gal(b1-4)GlcNAc
# How it was run: as §1
# [19] = target: Gal(a1-4)Gal(b1-3)GlcNAc(b1-2)Man(a1-3)[Gal(a1-4)Gal(b1-3)GlcNAc(b1-2)Man(a1-6)]Man(b1-4)GlcNAc(b1-4)GlcNAc
# How it was run: as §1
# Gal(a1-4)Gal(b1-4)Gal = target: Gal(a1-4)Gal(b1-4)Gal
# How it was run: as §1
# Gal(a1-4)Gal(b1-4)GalNAc = target: Gal(a1-4)Gal(b1-4)GalNAc
# How it was run: as §1
# Gal(a1-4)Gal(b1-4)Glc = target: Gal(a1-4)Gal(b1-4)Glc
# How it was run: as §1
# Gal(a1-4)Gal(b1-4)GlcNAc = target: Gal(a1-4)Gal(b1-4)GlcNAc
# How it was run: as §1
# [20] = target: Gal(a1-4)Gal(b1-4)GlcNAc(b1-2)Man(a1-3)[Gal(a1-4)Gal(b1-4)GlcNAc(b1-2)Man(a1-6)]Man(b1-4)GlcNAc(b1-4)GlcNAc
# How it was run: as §1
# [21] = target: Gal(a1-4)Gal(b1-4)GlcNAc(b1-3)Gal(b1-4)Glc
# How it was run: as §1
# Gal(a1-4)GlcNAc = target: Gal(a1-4)GlcNAc
# How it was run: as §1
# Gal(a1-6)Glc = target: Gal(a1-6)Glc
# How it was run: as §1
# Gal(b1-2)Gal = target: Gal(b1-2)Gal
# How it was run: as §1
binder,measurement,setting,value
"OVGAL11 (Ovis aries), AAF64320 (protein) MDSLPNPYLQSVSLTVCYMVKIKANLLSAFGKNPELQVDFGTGTGQGGNIPFRFWYCDGMVVMNTFTDGSWQKEEKVLTDAFVPGQPFELQFLVLEKEYQVFVKNKPICQFAHRLPLQSVKMLDVRGDIVLTSVDTL",glycan array binding signal (z-score),[1],-0.245
same,glycan array binding signal (z-score),[2],-0.101
same,glycan array binding signal (z-score),[3],-0.315
same,glycan array binding signal (z-score),[4],-0.1
same,glycan array binding signal (z-score),[5],-0.085
same,glycan array binding signal (z-score),Fuc(a1-4)GlcNAc,-0.2
same,glycan array binding signal (z-score),Fuc(b1-3)GlcNAc,-0.153
same,glycan array binding signal (z-score),Gal(a1-2)Gal,0.223
same,glycan array binding signal (z-score),Gal(a1-3)Gal,0.099
same,glycan array binding signal (z-score),Gal(a1-3)Gal(b1-3)Glc,-0.398
same,glycan array binding signal (z-score),Gal(a1-3)Gal(b1-3)GlcNAc,-0.267
same,glycan array binding signal (z-score),[6],-0.087
same,glycan array binding signal (z-score),[7],-0.081
same,glycan array binding signal (z-score),[8],-0.12
same,glycan array binding signal (z-score),[9],-0.082
same,glycan array binding signal (z-score),[10],0.059
same,glycan array binding signal (z-score),Gal(a1-3)Gal(b1-4)Glc,-0.097
same,glycan array binding signal (z-score),Gal(a1-3)Gal(b1-4)GlcNAc,-0.086
same,glycan array binding signal (z-score),[11],-0.093
same,glycan array binding signal (z-score),[12],0.112
same,glycan array binding signal (z-score),[13],-0.073
same,glycan array binding signal (z-score),[14],-0.083
same,glycan array binding signal (z-score),[15],-0.14
same,glycan array binding signal (z-score),[16],-0.044
same,glycan array binding signal (z-score),[17],0.001
same,glycan array binding signal (z-score),Gal(a1-3)GalNAc,-0.076
same,glycan array binding signal (z-score),Gal(a1-3)GlcNAc,0.088
same,glycan array binding signal (z-score),[18],-0.197
same,glycan array binding signal (z-score),[19],-0.043
same,glycan array binding signal (z-score),Gal(a1-4)Gal(b1-4)Gal,0.154
same,glycan array binding signal (z-score),Gal(a1-4)Gal(b1-4)GalNAc,-0.076
same,glycan array binding signal (z-score),Gal(a1-4)Gal(b1-4)Glc,-0.104
same,glycan array binding signal (z-score),Gal(a1-4)Gal(b1-4)GlcNAc,-0.116
same,glycan array binding signal (z-score),[20],-0.053
same,glycan array binding signal (z-score),[21],-0.12
same,glycan array binding signal (z-score),Gal(a1-4)GlcNAc,-0.228
same,glycan array binding signal (z-score),Gal(a1-6)Glc,0.612
same,glycan array binding signal (z-score),Gal(b1-2)Gal,-0.23
